# Results from paper PMC4336329 (PLoS ONE, 2015).
# About 14,000 (4.5%) of roughly 310,000 compounds showed an effect of 50% or more. Effects have a minus sign here. Some of the results follow.
# Target: human ether-à-go-go-related gene (hERG) potassium channel (human, UniProt Q12809)
# Assay: primary screen, population patch clamp on CHO cells stably expressing hERG
# 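Also: peak tail current of the secondary pulse compared with the same well before compound.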
# Sequence of human ether-à-go-go-related gene (hERG) potassium channel (Q12809 whole entry, looked up): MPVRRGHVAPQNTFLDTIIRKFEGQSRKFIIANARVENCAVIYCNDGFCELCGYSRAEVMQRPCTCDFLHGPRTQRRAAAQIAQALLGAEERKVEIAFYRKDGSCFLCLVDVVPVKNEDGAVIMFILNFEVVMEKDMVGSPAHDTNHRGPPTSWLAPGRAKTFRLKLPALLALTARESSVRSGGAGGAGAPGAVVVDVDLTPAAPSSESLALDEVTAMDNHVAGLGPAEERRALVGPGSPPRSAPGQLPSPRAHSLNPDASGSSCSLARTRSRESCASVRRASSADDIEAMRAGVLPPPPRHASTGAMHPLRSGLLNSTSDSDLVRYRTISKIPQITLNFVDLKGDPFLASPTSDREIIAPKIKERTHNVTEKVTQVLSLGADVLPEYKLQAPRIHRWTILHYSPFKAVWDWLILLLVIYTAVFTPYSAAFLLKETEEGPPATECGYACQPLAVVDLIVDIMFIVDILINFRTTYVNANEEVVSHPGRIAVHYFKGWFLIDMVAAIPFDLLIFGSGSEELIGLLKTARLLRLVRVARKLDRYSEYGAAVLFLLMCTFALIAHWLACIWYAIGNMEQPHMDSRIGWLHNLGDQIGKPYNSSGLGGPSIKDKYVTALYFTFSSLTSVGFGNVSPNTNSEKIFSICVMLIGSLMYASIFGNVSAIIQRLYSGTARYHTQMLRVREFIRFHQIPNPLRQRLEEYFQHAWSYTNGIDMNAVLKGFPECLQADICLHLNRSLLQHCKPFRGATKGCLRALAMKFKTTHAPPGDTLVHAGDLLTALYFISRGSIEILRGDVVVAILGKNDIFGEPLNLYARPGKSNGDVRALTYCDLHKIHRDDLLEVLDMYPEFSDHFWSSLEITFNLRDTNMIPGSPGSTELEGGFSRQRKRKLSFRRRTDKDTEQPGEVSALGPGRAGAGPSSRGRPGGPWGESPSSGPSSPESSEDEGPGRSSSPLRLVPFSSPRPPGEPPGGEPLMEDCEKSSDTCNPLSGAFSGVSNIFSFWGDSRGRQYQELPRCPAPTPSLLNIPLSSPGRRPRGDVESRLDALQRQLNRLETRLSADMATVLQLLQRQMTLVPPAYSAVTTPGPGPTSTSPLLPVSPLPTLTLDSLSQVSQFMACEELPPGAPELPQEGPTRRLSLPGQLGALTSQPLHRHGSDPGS
row,Structure (SMILES),"hERG current change (%, negative = inhibition) at 10uM [%]"
1,COC(=O)CCC(=O)NN1C(=O)c2ccccc2C1=O,14
2,CCN(CC)S(=O)(=O)c1ccc(OC)c(NC(=O)CCc2c(C)noc2C)c1,-6.33
3,CCC(C)Sc1ccc([C@H]2N[C@@](Cc3ccccc3)(C(=O)OC)[C@H]3C(=O)N(CC)C(=O)[C@@H]23)cc1OC.O=C(O)C(F)(F)F (stereo partly shown),12.5
4,CC(=O)N1CCc2cc(S(=O)(=O)NC3CCCCC3)ccc21,10.9
5,CC1=C(C(=O)NC2CCCc3c2cnn3-c2cccc(C)c2C)OCCO1 (stereo not shown),11.8
6,COc1ccccc1NC(=O)c1ccc(NC(=O)COC(=O)c2ccc(O)cc2)cc1,3.74
7,CC(C)(C)NC(=O)NC(=O)COC(=O)Cc1ccc(Cl)cc1Cl,4.09
8,CCOC(=O)/C(=C/C=C1\Sc2ccccc2N1CC)C(C)=O,4.94
9,COc1ccc(CN2CCN(CCC(C)C)C(CCO)C2)cc1Cn1cccn1 (stereo not shown),-48.1
10,CC(C)Cn1c(SCC(=O)N2CCN(S(=O)(=O)c3ccccc3)CC2)nc2ccccc21,0.539
11,CCCc1cc(=O)[nH]c(SCC(=O)Nc2cccc3ccccc23)n1,-10.7
12,O=C(NC1CCCc2c1cnn2-c1ccc(F)cc1F)c1ccccn1 (stereo not shown),1.82
13,CCn1c(=O)[nH]c(=O)c2c(N)c(C(=O)c3cc(F)ccc3F)sc21,-57.4
14,Cc1cccc(-c2nnc(SCC(=O)NCc3ccc4c(c3)OCO4)n2C)c1,-22.5
15,O=C(COc1ccc(Cl)cc1Cl)N1CCCN(C(=O)COc2ccc(Cl)cc2Cl)CC1,-47.2
16,COC(=O)C1=C(c2ccc(F)cc2OCc2ccccc2)C[C@@H]2CC[C@H]1N2C(=O)NCc1ccc(OC)c(OC)c1,-2.13
17,CCOc1ccc(N2CC(C(=O)NCc3ccc(C)n3C)CC2=O)cc1 (stereo not shown),-7.48
18,CCc1cccc(NC(=O)CCS(=O)(=O)c2ccc(Br)cc2)c1,5.49
19,COc1ccc(C(=O)CC2OC(=O)c3c2ccc(OC)c3OC)cc1 (stereo not shown),0.564
20,O=C(NCCOc1ccccc1Cl)c1ncn[nH]1,-2.83
21,COc1ccc(S(=O)(=O)n2ccnc2)c2cccnc12,19.4
22,CCN(CC)C(=O)Cn1cc(C(=O)C(=O)N(C)C2CCN(C)CC2)c2ccccc21,19.4

row,Structure (SMILES),"hERG current change (%, negative = inhibition) at 10uM [%]"
1,COC(=O)c1c(-c2cccc3ccccc23)csc1NC(=O)Cc1ccc(OC)c(OC)c1,5.18
2,CCOC(=O)c1sc(NC(=O)c2ccc(S(=O)(=O)N(C)C)cc2)cc1C,14.1
3,C=CCSC1=C(C#N)C(c2cc(Br)c(O)c(OC)c2)CC(=O)N1 (stereo not shown),-14.2
4,Cc1ccc(S(=O)(=O)NCCC(=O)N2CCN(C/C=C/c3ccccc3)CC2)cc1,-49.5
5,CCOC(=O)N1CCC(N2Cc3cccc(C(=O)Nc4ccc(F)cc4)c3C2=O)CC1,-55.3
6,Cc1ccc(NC(=O)C(C)Sc2nnc(-c3cccnc3)o2)cc1 (stereo not shown),11.9
7,O=C(NCCC1CCCCN1S(=O)(=O)c1cccs1)C(=O)Nc1ccccc1F (stereo not shown),-1.31
8,O=C(CCCc1ccccc1)NCCS(=O)(=O)N1CCN(c2ccccc2F)CC1,-18.5
9,CCC(=O)Nc1ccc(-c2nnc(SCc3ccc(C(=O)Nc4nccs4)cc3)n2CC)cc1,9.68
10,CCS(=O)(=O)c1ccc2oc(Nc3ccc(OC)cc3)nc2c1,2.92
11,CCOc1ccc(C(=O)NCC(=O)NCCCSc2ccccc2)cc1OCC,-18.1
12,COc1ccc(-n2ncc(C(=O)NC3CC3)c2C2CCN(C(=O)OC(C)(C)C)CC2)cc1,3.28
13,Cc1ccc(/C(O)=C2\C(=O)C(=O)N(C)C2c2ccc([N+](=O)[O-])cc2)cc1 (stereo not shown),13.1
14,Cc1ccc(/C=C/C(=O)c2ccc(C)cc2)cc1,22.6
15,CCN(c1cccc(C)c1)S(=O)(=O)c1cc2c3c(c1)CCC(=O)N3CCC2,-30.5
16,O=C(NCCCc1ccccc1)c1cccc([N+](=O)[O-])c1,-23
17,COc1cccc(-n2c(Cc3cc(=O)[nH]c(=O)[nH]3)nnc2SCC(=O)NC2CCCCC2)c1,13.4
18,O=C(C1CCCCN1S(=O)(=O)c1ccccc1[N+](=O)[O-])N1CCCC1 (stereo not shown),10.9
19,NS(=O)(=O)c1cccc(NC(=O)CSc2nc3ccccc3[nH]2)c1,14.8
20,O=C(Nc1cccn2ncnc12)c1ccc(Cl)cc1Cl,-2.56
21,CCOC(=O)C1CCCN(C(=O)Nc2ccccc2)C1 (stereo not shown),4.59
22,Cc1ccc(-n2nnc(-c3cccnc3Cl)n2)cc1,22.8

row,Structure (SMILES),"hERG current change (%, negative = inhibition) at 10uM [%]"
1,COc1cccc(/C=N/Nc2nn3cnnc3c3ccccc23)c1O,-3.08
2,C=C(C)c1cccc(C(C)(C)NC(=O)NC2CCN(Cc3ccccc3)CC2)c1.Cl,-55.5
3,Cc1noc(C)c1S(=O)(=O)N1CCC(C(=O)c2ccccc2)CC1,-43
4,CC(C)(C)C(=O)Nc1nnc(Cc2ccccc2)s1,0.154
5,COc1cccc(Cn2nc(C(=O)O)c3ccccc3c2=O)c1,9.63
6,CCCCOc1ccc(NC(=O)C2OC3OC(C)(C)OC3C3OC(C)(C)OC23)cc1 (stereo not shown),20.7
7,COc1ccccc1-c1nnc(SCC(=O)NC2CCCCC2)n1C,23.6
8,Cc1ccc(S(=O)(=O)Nc2c(C)nn(C)c2C)cc1C,15.2
9,[O-]/[N+](=C\c1cccc(Br)c1)c1ccccc1,12.5
10,COc1cccc(C#Cc2c(C=O)n(C)c3ccccc23)c1,10.3
11,O=C(NNC(=S)NC(=O)c1ccc(Br)cc1)c1ccc([N+](=O)[O-])cc1,16
12,CCOc1ccccc1/C=N/NC(=O)CNC(=O)c1cccs1,-42.4
13,COc1cccc(NC(=O)Cn2nnc(C(=O)Nc3ccccc3)c2N)c1,-8.33
14,O=C(N/N=C/c1cn(-c2cccs2)nc1-c1ccccc1)c1ccccc1Cl,-11.4
15,Cc1c(CC(=O)NCCCC(=O)O)c(=O)oc2cc3occ(-c4ccccc4)c3cc12,11.4
16,CCCCNC(=O)C1CCCN1C(=O)Nc1cccc(OC)c1 (stereo not shown),14
17,CCN1CCN(CNC(=O)c2cnccn2)CC1,15.4
18,Cc1ccc(C(O)Cn2nc(C)cc2C)cc1 (stereo not shown),13.7
19,Cc1cc(C)c2c(=O)cc(C(F)(F)F)oc2n1,34.7
20,CC1CC(C)CN(C(=O)COC(=O)c2ccc3c(c2)OCO3)C1 (stereo not shown),-17.6
21,Cc1cccc(N2CCN(C(=O)C3CC(=O)N(C4CCCC4)C3)CC2)c1C (stereo not shown),-57.9
22,O=C(CCn1c(=O)oc2ccccc21)N1CCN(c2ccccc2F)CC1,-23.8

row,Structure (SMILES),"hERG current change (%, negative = inhibition) at 10uM [%]"
1,Fc1ccc(/C=N/Nc2nn[nH]n2)cc1,10.7
2,COc1ccc(Nc2nc(CC(C)=O)ns2)cc1,8.65
3,Cc1ccc2occ(/C=N/NC(=O)c3ccc(O)cc3)c(=O)c2c1,-3.7
4,CCC(=O)Nc1cc(C(=O)OCC(=O)c2ccc(Cl)cc2Cl)ccc1C,1.89
5,CN(C)C=O.Cc1cc(C)nc(NC(=O)CSc2nc3cc(Cl)ccc3s2)n1,-6.21
6,Cc1n[nH]c(C)c1CCN(C)Cc1cn(C)nc1-c1ccc2c(c1)OCCO2,-4.42
7,Cc1sc2nc(CN3CCOCC3)[nH]c(=S)c2c1C,-21.5
8,COc1cccc(-n2nnc3c(=O)n(CC(=O)N4CCCc5ccccc54)cnc32)c1,-10.3
9,Cn1ncc(Cl)c1C(=O)Nc1cccc(Cl)c1,-11.2
10,Cc1nn(-c2ccccc2)nc1CNC(=O)C1CC1,6.65
11,CCOC(=O)Cn1c2[n+](c3ccccc31)CC(O)CS2.[I-] (stereo not shown),16.3
12,O=C1CC(c2ccc(S(=O)(=O)N3CCN(c4ccccc4)CC3)cc2)CN1 (stereo not shown),-10.8
13,Cc1cc(C)n(C(=O)c2ccccc2[N+](=O)[O-])n1,22.7
14,CCc1nc2c(cnn2-c2ccc(Cl)cc2)c(=O)n1-c1ccc2c(c1)OCCO2,-17.9
15,COC(=O)c1c(NC(=O)CN2CCC3(O)CCCCC3C2c2cc(OC)ccc2OC)sc(C)c1C (stereo not shown),21.9
16,CC(C)c1ccc(/C=N/NC(=O)C2CCCC2)cc1,-9.68
17,COc1ccc(CNS(=O)(=O)c2ccc3c(c2)N(C(C)=O)CCO3)cc1,3.46
18,CCc1sc(C(=O)NCCc2ccc(S(N)(=O)=O)cc2)cc1Br,-9.36
19,C[N+](C)(C)CC(O)CC(=O)O.[Cl-] (stereo not shown),-2.12
20,COc1ccc(N(CC(=O)Nc2ccccc2SC)S(C)(=O)=O)cc1OC,14.2
21,COc1ccc(Nc2nccc(N(C)C)c2C#N)cc1,5.01
22,CC1=C(CC[C@@H](C)CO)OC2CC3C4CCC5CC(O)CCC5(C)C4CC(=O)C3(C)C12 (stereo partly shown),4.38
